Measured values reported in patent US11000038B2, “Pyridone compounds and agricultural and horticultural fungicides containing the same as active ingredients” (priority 2017, dated 2021).
Where two headings read alike, the source gives them in different places.

What was measured:
[1] = system: rice blast fungi (Magnaporthe grisea); assay type: in vivo; conditions: for Test A control value: rice blast; for Test A control value class (rice blast): control value=100{1-(n/3)}
[2] = system: cucumber anthracnose fungi (Colletotrichum orbiculare); test: Test Example H: cucumber anthracnose, spray treatment of cucumber plants; conditions: for Test H control value: cucumber anthracnose, 6 to 10 days after inoculation; for Test H control value class (cucumber anthracnose): 2.5 ml/pot, cucumber Sagami Hanjiro, 6 to 10 days from inoculation
[3] = system: tomato late blight fungi (Phytophthora infestans); assay type: in vivo; conditions: for Test F control value: tomato late blight; for Test F control value class (tomato late blight): control value=100{1-(n/3)}
[4] = spray treatment of tomato plants

Structure (SMILES): Cc1ccc(Br)cc1-n1cc(Br)c(=O)c(Br)c1-c1c(F)cc(F)cc1F [Compound 248]
- Test A control value ([1]; spray treatment of rice plants): H (H shows the control value of more than 50%)
- Test H control value ([2]; 250 ppm spray (2.5 ml/pot)): H (H shows the control value of more than 50%)
- Test F control value [3, 4]: L (L shows the control value of 50% or less)

Structure (SMILES): Cc1ccc(N)cc1-n1cc(Br)c(=O)c(Cl)c1-c1c(F)cc(F)cc1F [Compound 348]
- Test A control value ([1]; spray treatment of rice plants): L (L shows the control value of 50% or less)
- Test H control value ([2]; 250 ppm spray (2.5 ml/pot)): L (L shows the control value of 50% or less)
- Test F control value [3, 4]: L (L shows the control value of 50% or less)

Structure (SMILES): CCCc1ccccc1-n1cc(Cl)c(=O)c(Br)c1-c1c(F)cc(F)cc1F [Compound 447]
- Test A control value ([1]; spray treatment): L (L shows the control value of 50% or less)
- Test H control value ([2]; 250 ppm spray): H (H shows the control value of more than 50%)
- Test F control value ([3]; spray treatment): L (L shows the control value of 50% or less)

Structure (SMILES): COc1cccc(-n2cc(C)c(=O)c(C)c2-c2c(F)cccc2F)c1 [Compound 605]
- Test A control value ([1]; spray treatment): H (H shows the control value of more than 50%)
- Test H control value ([2]; 250 ppm spray): H (H shows the control value of more than 50%)
- Test F control value ([3]; spray treatment): L (L shows the control value of 50% or less)

Structure (SMILES): C=CCOc1ccc(C)c(-n2cc(Br)c(=O)c(Cl)c2-c2c(F)cccc2F)c1 [Compound 430]
- Test A control value ([1]; spray treatment): H (H shows the control value of more than 50%)
- Test H control value ([2]; 250 ppm spray): H (H shows the control value of more than 50%)
- Test F control value ([3]; spray treatment): L (L shows the control value of 50% or less)

Structure (SMILES): O=c1c(Br)cn(-c2ccccc2)c(-c2c(F)cccc2Cl)c1Cl [Compound 590]
- Test A control value ([1]; spray treatment): H (H shows the control value of more than 50%)
- Test H control value ([2]; 250 ppm spray): H (H shows the control value of more than 50%)
- Test F control value ([3]; spray treatment): L (L shows the control value of 50% or less)

Structure (SMILES): CC(=O)c1cn(C(C)C(C)C)c(-c2c(F)cc(F)cc2F)c(Cl)c1=O (stereo not drawn) [Compound 136]
- Test A control value class (rice blast) ([1]; spray treatment of rice plants): L (L shows the control value of 50% or less)
- Test H control value class (cucumber anthracnose) ([2]; 250 ppm spray): H (H shows the control value of more than 50%)
- Test F control value class (tomato late blight) [3, 4]: H (H shows the control value of more than 50%)

Structure (SMILES): Cc1cccc(F)c1-n1cc(Cl)c(=O)c(Br)c1-c1ccc(F)cc1 [Compound 368]
- Test A control value ([1]; spray treatment of rice plants): H (H shows the control value of more than 50%)
- Test H control value ([2]; 250 ppm spray (2.5 ml/pot)): H (H shows the control value of more than 50%)
- Test F control value [3, 4]: L (L shows the control value of 50% or less)

Structure (SMILES): Cc1cn(-c2ccccc2)c(-c2ccc(Cl)cc2Cl)c(C)c1=O [Compound 595]
- Test A control value ([1]; spray treatment): H (H shows the control value of more than 50%)
- Test H control value ([2]; 250 ppm spray): H (H shows the control value of more than 50%)
- Test F control value ([3]; spray treatment): L (L shows the control value of 50% or less)

Structure (SMILES): O=c1c(Cl)cn(-c2cccc(Br)c2)c(-c2c(F)cc(F)cc2F)c1Cl [Compound 120]
- Test A control value class (rice blast) ([1]; spray treatment of rice plants): H (H shows the control value of more than 50%)
- Test H control value class (cucumber anthracnose) ([2]; 250 ppm spray): H (H shows the control value of more than 50%)
- Test F control value class (tomato late blight) [3, 4]: L (L shows the control value of 50% or less)

Structure (SMILES): CCc1c(-c2ccccc2)n(-c2ccccc2C)cc(C)c1=O [Compound 566]
- Test A control value ([1]; spray treatment): H (H shows the control value of more than 50%)
- Test H control value ([2]; 250 ppm spray): H (H shows the control value of more than 50%)
- Test F control value ([3]; spray treatment): L (L shows the control value of 50% or less)

Structure (SMILES): Cc1ccc(C)c(-n2cc(Cl)c(=O)c(Cl)c2-c2c(F)cc(F)cc2F)c1 [Compound 149]
- Test A control value class (rice blast) ([1]; spray treatment of rice plants): H (H shows the control value of more than 50%)
- Test H control value class (cucumber anthracnose) ([2]; 250 ppm spray): H (H shows the control value of more than 50%)
- Test F control value class (tomato late blight) [3, 4]: L (L shows the control value of 50% or less)

Structure (SMILES): CCc1c(-c2ccccc2)n(-c2cccc(F)c2C)cc(C)c1=O [Compound 544]
- Test A control value ([1]; spray treatment): L (L shows the control value of 50% or less)
- Test H control value ([2]; 250 ppm spray): H (H shows the control value of more than 50%)
- Test F control value ([3]; spray treatment): H (H shows the control value of more than 50%)

Structure (SMILES): O=c1c(Br)cn(-c2ccccc2)c(-c2ccc(F)cc2F)c1Br [Compound 470]
- Test A control value ([1]; spray treatment): H (H shows the control value of more than 50%)
- Test H control value ([2]; 250 ppm spray): H (H shows the control value of more than 50%)
- Test F control value ([3]; spray treatment): L (L shows the control value of 50% or less)

Structure (SMILES): CC(C)Cn1cc(Br)c(=O)c(Br)c1-c1c(F)cc(F)cc1F [Compound 116]
- Test A control value class (rice blast) ([1]; spray treatment of rice plants): H (H shows the control value of more than 50%)
- Test H control value class (cucumber anthracnose) ([2]; 250 ppm spray): H (H shows the control value of more than 50%)
- Test F control value class (tomato late blight) [3, 4]: L (L shows the control value of 50% or less)

Structure (SMILES): Cc1ccc(F)cc1-n1cc(C)c(=O)c(C)c1-c1c(F)cccc1F [Compound 448]
- Test A control value ([1]; spray treatment): H (H shows the control value of more than 50%)
- Test H control value ([2]; 250 ppm spray): H (H shows the control value of more than 50%)
- Test F control value ([3]; spray treatment): L (L shows the control value of 50% or less)

Structure (SMILES): CCc1c(-c2ccccc2)n(-c2cc(F)ccc2C)cc(Br)c1=O [Compound 564]
- Test A control value ([1]; spray treatment): L (L shows the control value of 50% or less)
- Test H control value ([2]; 250 ppm spray): H (H shows the control value of more than 50%)
- Test F control value ([3]; spray treatment): L (L shows the control value of 50% or less)

Structure (SMILES): Cc1ccccc1-n1cc(C)c(=O)c(C)c1-c1ccc(S(C)(=O)=O)cc1 [Compound 263]
- Test A control value ([1]; spray treatment of rice plants): L (L shows the control value of 50% or less)
- Test H control value ([2]; 250 ppm spray (2.5 ml/pot)): L (L shows the control value of 50% or less)
- Test F control value [3, 4]: L (L shows the control value of 50% or less)

Structure (SMILES): CCc1c(-c2ccc(F)cc2Cl)n(-c2ccccc2)cc(C)c1=O [Compound 623]
- Test A control value ([1]; spray treatment): H (H shows the control value of more than 50%)
- Test H control value ([2]; 250 ppm spray): H (H shows the control value of more than 50%)
- Test F control value ([3]; spray treatment): L (L shows the control value of 50% or less)

Structure (SMILES): CCc1c(-c2c(F)cccc2F)n(-c2cccc(Br)c2C)cc(Br)c1=O [Compound 526]
- Test A control value ([1]; spray treatment): H (H shows the control value of more than 50%)
- Test H control value ([2]; 250 ppm spray): H (H shows the control value of more than 50%)
- Test F control value ([3]; spray treatment): L (L shows the control value of 50% or less)

Structure (SMILES): O=c1c(Br)cn(-c2ccccc2)c(-c2ccc(F)cc2Br)c1Cl [Compound 569]
- Test A control value ([1]; spray treatment): H (H shows the control value of more than 50%)
- Test H control value ([2]; 250 ppm spray): H (H shows the control value of more than 50%)
- Test F control value ([3]; spray treatment): L (L shows the control value of 50% or less)

Structure (SMILES): Cc1ccccc1-n1cc(C)c(=O)c(C)c1-c1ccc([S+](C)[O-])cc1 (stereo not drawn) [Compound 262]
- Test A control value ([1]; spray treatment of rice plants): L (L shows the control value of 50% or less)
- Test H control value ([2]; 250 ppm spray (2.5 ml/pot)): L (L shows the control value of 50% or less)
- Test F control value [3, 4]: L (L shows the control value of 50% or less)

Structure (SMILES): COc1cc(F)c(-c2c(Br)c(=O)c(Cl)cn2C2CCCCC2)c(F)c1 [Compound 27]
- Test A control value class (rice blast) ([1]; spray treatment of rice plants): H (H shows the control value of more than 50%)
- Test H control value class (cucumber anthracnose) ([2]; 250 ppm spray): H (H shows the control value of more than 50%)
- Test F control value class (tomato late blight) [3, 4]: L (L shows the control value of 50% or less)

Structure (SMILES): Cc1ccccc1-n1cc(Br)c(=O)c(CC(F)(F)F)c1-c1c(F)cc(F)cc1F [Compound 341]
- Test A control value ([1]; spray treatment of rice plants): H (H shows the control value of more than 50%)
- Test H control value ([2]; 250 ppm spray (2.5 ml/pot)): L (L shows the control value of 50% or less)
- Test F control value [3, 4]: L (L shows the control value of 50% or less)

Structure (SMILES): Cc1ccccc1-n1cc(Br)c(=O)c(C)c1-c1ccccc1 [Compound 357]
- Test A control value ([1]; spray treatment of rice plants): L (L shows the control value of 50% or less)
- Test H control value ([2]; 250 ppm spray (2.5 ml/pot)): L (L shows the control value of 50% or less)
- Test F control value [3, 4]: L (L shows the control value of 50% or less)

Structure (SMILES): CCc1c(-c2ccccc2)n(-c2cccc(C)c2C)cc(Br)c1=O [Compound 502]
- Test A control value ([1]; spray treatment): L (L shows the control value of 50% or less)
- Test H control value ([2]; 250 ppm spray): L (L shows the control value of 50% or less)
- Test F control value ([3]; spray treatment): L (L shows the control value of 50% or less)

Structure (SMILES): CC(C)C(C)n1cc(Br)c(=O)c(Cl)c1-c1c(F)cc(F)cc1F (stereo not drawn) [Compound 43]
- Test A control value class (rice blast) ([1]; spray treatment of rice plants): H (H shows the control value of more than 50%)
- Test H control value class (cucumber anthracnose) ([2]; 250 ppm spray): H (H shows the control value of more than 50%)
- Test F control value class (tomato late blight) [3, 4]: L (L shows the control value of 50% or less)

Structure (SMILES): Cc1onc(-n2cc(Br)c(=O)c(Br)c2-c2c(F)cc(F)cc2F)c1Br [Compound 147]
- Test A control value class (rice blast) ([1]; spray treatment of rice plants): H (H shows the control value of more than 50%)
- Test H control value class (cucumber anthracnose) ([2]; 250 ppm spray): H (H shows the control value of more than 50%)
- Test F control value class (tomato late blight) [3, 4]: H (H shows the control value of more than 50%)

Structure (SMILES): Cc1ccc(C)c(-n2cc(Br)c(=O)c(Br)c2-c2c(F)cc(F)cc2F)c1 [Compound 144]
- Test A control value class (rice blast) ([1]; spray treatment of rice plants): H (H shows the control value of more than 50%)
- Test H control value class (cucumber anthracnose) ([2]; 250 ppm spray): H (H shows the control value of more than 50%)
- Test F control value class (tomato late blight) [3, 4]: L (L shows the control value of 50% or less)

Structure (SMILES): Cc1ccc(C)c(-n2cc(Br)c(=O)c(Cl)c2-c2c(F)cc(F)cc2F)c1 [Compound 143]
- Test A control value class (rice blast) ([1]; spray treatment of rice plants): H (H shows the control value of more than 50%)
- Test H control value class (cucumber anthracnose) ([2]; 250 ppm spray): H (H shows the control value of more than 50%)
- Test F control value class (tomato late blight) [3, 4]: L (L shows the control value of 50% or less)

Structure (SMILES): Cc1c(Br)cccc1-n1cc(Br)c(=O)c(Br)c1-c1c(F)cc(F)cc1F [Compound 347]
- Test A control value ([1]; spray treatment of rice plants): H (H shows the control value of more than 50%)
- Test H control value ([2]; 250 ppm spray (2.5 ml/pot)): H (H shows the control value of more than 50%)
- Test F control value [3, 4]: L (L shows the control value of 50% or less)

Structure (SMILES): Cc1cn(-c2ccccc2Cl)c(-c2c(F)cc(F)cc2F)c(C)c1=O [Compound 439]
- Test A control value ([1]; spray treatment): H (H shows the control value of more than 50%)
- Test H control value ([2]; 250 ppm spray): H (H shows the control value of more than 50%)
- Test F control value ([3]; spray treatment): L (L shows the control value of 50% or less)
